Experimental data from publication PMC4336329 (PLoS ONE, 2015).
The campaign covered roughly 310,000 compounds. About 2,200 (0.71%) showed an effect of 50% or more. The effect is printed as a negative number. The list shows a part of the results.

target: human ether-à-go-go-related gene (hERG) potassium channel (human, UniProt Q12809); assay: primary screen, population patch clamp on CHO cells stably expressing hERG
Sequence (Q12809 whole entry, looked up): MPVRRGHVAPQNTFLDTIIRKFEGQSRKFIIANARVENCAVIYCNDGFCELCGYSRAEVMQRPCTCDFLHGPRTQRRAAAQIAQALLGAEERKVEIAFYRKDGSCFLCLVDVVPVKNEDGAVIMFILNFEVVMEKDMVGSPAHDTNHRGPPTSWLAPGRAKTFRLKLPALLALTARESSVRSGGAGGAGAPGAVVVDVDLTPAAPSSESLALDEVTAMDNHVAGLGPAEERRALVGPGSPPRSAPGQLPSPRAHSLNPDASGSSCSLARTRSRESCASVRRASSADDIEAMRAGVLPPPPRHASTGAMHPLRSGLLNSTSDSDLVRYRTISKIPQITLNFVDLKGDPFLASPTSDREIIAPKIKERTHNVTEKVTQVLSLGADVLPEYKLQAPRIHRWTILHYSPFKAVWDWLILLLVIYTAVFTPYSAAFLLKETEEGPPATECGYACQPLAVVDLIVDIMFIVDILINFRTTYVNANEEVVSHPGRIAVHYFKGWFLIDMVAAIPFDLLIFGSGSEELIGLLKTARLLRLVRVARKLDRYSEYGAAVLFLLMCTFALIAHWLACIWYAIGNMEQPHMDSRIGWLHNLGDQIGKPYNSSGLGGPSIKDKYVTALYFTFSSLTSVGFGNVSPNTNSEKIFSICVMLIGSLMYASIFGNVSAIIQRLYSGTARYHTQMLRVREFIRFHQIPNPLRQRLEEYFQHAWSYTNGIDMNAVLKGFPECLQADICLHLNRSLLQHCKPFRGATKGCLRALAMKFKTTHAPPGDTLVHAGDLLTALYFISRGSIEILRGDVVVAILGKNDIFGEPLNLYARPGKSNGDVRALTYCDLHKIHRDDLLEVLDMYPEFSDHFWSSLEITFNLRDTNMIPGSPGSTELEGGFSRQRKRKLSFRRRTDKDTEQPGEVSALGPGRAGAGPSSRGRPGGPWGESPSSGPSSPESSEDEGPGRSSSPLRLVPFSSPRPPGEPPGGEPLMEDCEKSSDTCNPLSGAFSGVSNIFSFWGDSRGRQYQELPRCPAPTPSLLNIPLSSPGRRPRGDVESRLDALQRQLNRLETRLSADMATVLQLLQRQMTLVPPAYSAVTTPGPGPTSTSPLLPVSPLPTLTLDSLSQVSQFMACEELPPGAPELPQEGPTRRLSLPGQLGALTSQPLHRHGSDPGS

In order of falling “hERG current change (%, negative = inhibition) at 1uM” value:
1. Cc1cccc(C)c1NC(=O)CN(C)C(=O)CSC(=S)N1CCCC1  24.1%
2. CC(Cc1ccccc1)C(=O)N[C@@H](CO)Cc1ccccc1 (stereo partly shown)  16.5%
3. Nc1ncnc2c1ncn2[C@H]1C[C@H](O)[C@@H](CO)O1.O  15.1%
4. CCN(CC(=O)Nc1cc(OC)ccc1OC)Cc1nc2ccccc2c(=O)[nH]1  14%
5. O=C(NNc1c(Cl)cccc1Cl)C1CCC1  13.3%
6. O=[N+]([O-])c1ccc(CSc2nnc(-c3cccnc3)o2)cc1  12.6%
7. O=C(CCC1CCCCC1)NCCN1C2=NC[C@H](Cc3ccc(O)cc3)N2C[C@H]1Cc1ccc(O)cc1  12.5%
8. Cc1cc(C)nc(SCc2cc(=O)c(OC(=O)c3cccc([N+](=O)[O-])c3)co2)n1  11.9%
9. Cc1sc2ncn(CC(=O)N3CCCC(C)C3)c(=O)c2c1S(=O)(=O)N1CCCCC1 (stereo not shown)  11%
10. C=CCn1cc(C(=O)OCC)c(=O)c2cc(F)c(F)cc21  9.97%
11. C=CCOc1c(CNc2ccc(C(=O)O)cc2)cccc1OC  9.62%
12. CN1CCN(NC(=O)c2cn(-c3ccccc3)nc2-c2cccs2)CC1.Cl  9.3%
13. Cc1cnc(NC(=O)c2cc3c(s2)CCCC3)s1  6.25%
14. Cc1ccnc(NC(=O)C2CCN(S(=O)(=O)c3ccc(C)c(C)c3)CC2)c1  5.56%
15. CC(C)c1ccccc1OCCCCCNCCO  5.01%
16. COCCOC(=O)C1=C(C)Nc2nc(C)nn2C1c1ccc(F)cc1 (stereo not shown)  1.93%
17. CN(Cc1ccccc1)C(=O)CCNC(=O)Cn1cnc2ccccc2c1=O  1.46%
18. CCc1ccc(/C=N/Nc2ncnc3nc[nH]c23)cc1  0.85%
19. NC(=O)c1ccc(NC(=O)COC(=O)c2ccc([N+](=O)[O-])cc2)cc1  0.696%
20. Cc1sc2ncnc(SCC(=O)N3c4ccccc4Sc4ccc(Cl)cc43)c2c1C  0.204%
21. COc1ccc(C2CC(c3cccc(C)c3)n3ncnc3N2)cc1 (stereo not shown)  -2.29%
22. O=C1OCCC1Sc1nc2ccccc2n1-c1ccccc1 (stereo not shown)  -2.37%
23. O=C(COc1ccc([N+](=O)[O-])cc1)Nc1ccncc1  -3.3%
24. O=C(CCC(=O)N1CCOc2ccccc21)NC1CCN(Cc2ccccc2)CC1  -12.3%
25. O=C(c1cc(C2CC2)on1)N1CCCC(N2CCN(c3ccc(F)cc3)CC2)C1 (stereo not shown)  -16.9%
